# In PubChem BioAssay AID493208 (National Center for Advancing Translational Sciences (NCATS), 2011):
# Among all 44,000 compounds or so, about 340 (0.77%) were called active. About 5% were inconclusive and are not listed. Calls come from the whole dose curve; as a rule, active = well fitted inhibition curve with a large enough effect; inconclusive = small, poorly fitted or top-dose-only effect; inactive = flat fitted curve, though single readings scatter. The list shows a part of the results.
# Assay: Acumen qHTS Assay for Inhibitors of the mTORC1 Signaling Pathway in MEF (Tsc2-/-, p53-/-) Cells: Sytravon;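 note: plate controls were DMSO for no effect and rapamycin for full effect; nearly all actives have a fitted effect of over 50% in size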
# Conditions: phospho-rpS6 immunofluorescence/PI, 24 h; series mostly up to 38.3 µM; activity change, negative = inhibition: at the top concentration
# Procedure, shortened: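 Plate MEFs (Tsc2-/-, p53-/-, empty vector) in DMEM/10% FBS; after 24 h add compound, incubate 24 h at 37 degree Celsius; fix in PFA/TX-100, block, stain phospho-rpS6 and 10 uM PI; scan at 488 nm; report % positive cells.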
row,Compound,"activity change, negative = inhibition"
1,COc1cccc(CNC(=O)C2CCCN(c3ncnc4onc(-c5ccc(F)cc5)c34)C2)c1 (stereo unspecified),inactive: -0.465%
2,Cc1c(C)n(Cc2ccccc2)c2ccc(C(=O)NCCc3ccccc3Cl)cc12,inactive: -3.28%
3,CC(C)OCCCNC(=O)CN1C(=O)CSc2ccc(S(=O)(=O)N3CCCCC3)cc21,inactive: 6.33%
4,Cc1ccc(Cl)cc1NCc1nnc2n1CCCCC2,inactive: 5.44%
5,O=C(NCCc1csc(-c2cccc(F)c2)n1)c1ccc(Br)o1,inactive: -10.5%
6,O=C1CC(c2nc(-c3cccc(Cl)c3)no2)CN1c1ccc2c(c1)OCCO2 (stereo unspecified),inactive: -1.03%
7,Cc1n[nH]c(C)c1S(=O)(=O)N(CC(=O)NCc1ccccc1Cl)c1ccc(C(C)C)cc1,inactive: -9.66%
8,Cc1ccc(-n2nnnc2C2CCN(S(=O)(=O)c3ccc(OC(F)(F)F)cc3)CC2)cc1,inactive: -1.89%
9,CCN(C(=O)Cn1c(=O)oc2cc(S(=O)(=O)N3CCCC3)ccc21)c1cccc(C)c1,inactive: -3.52%
10,Cc1cc(C)cc(NC(=O)CN(C)S(=O)(=O)c2ccc3[nH]c4c(c3c2)CCCC4)c1,inactive: 0.176%
11,CCOc1ccc(CCNC(=O)c2c(C)oc3ncnc(N4CCOCC4)c23)cc1,inactive: -12.2%
12,COCCCNC(=O)CSc1nc2ccccc2c(=O)n1Cc1ccco1,inactive: 0.536%
13,Cc1ccc(NC(=O)CN2C(=O)COc3ccc(S(=O)(=O)N4CCCCCC4)cc32)cc1C,inactive: -2.9%
14,CCOc1cccc(CNc2ccc(O)cc2)c1OCc1ccccc1Cl,inactive: -9.35%
15,CCc1nnc2c(NCCc3ccc(OC)c(OC)c3)nc3ccccc3n12,inactive: 4.24%
16,Cc1ccc(C)c(N2CCN(C(=O)CCS(=O)(=O)c3ccc4c(c3)CC(=O)N4C)CC2)c1,inactive: -10.9%
17,COc1ccc(-c2onc(C)c2C)cc1S(=O)(=O)NCc1ccc(Br)cc1,inactive: -6.04%
18,CCc1ccc(NC(=O)CC2C(=O)N(c3ccc(Cl)cc3)C(=O)N2Cc2cccs2)cc1 (stereo unspecified),inactive: 0%
19,COc1cccc(C2CC(=O)Nc3c2c(=O)n(C)c2ncnn32)c1OC (stereo unspecified),inactive: 4.08%
20,COc1ccc(OC)c(S(=O)(=O)Nc2cc3c(C(C)=O)c(C)oc3c3ccccc23)c1,inactive: 8.86%
21,COC(=O)c1c(NC(=O)COc2cc(C)c(Cl)c(C)c2)sc2c1CCCC2,inactive: -4.34%
22,CCOc1ccc(NS(=O)(=O)c2ccc3c(c2)CCN3C(C)=O)cc1,inactive: -2.73%
23,COc1ccc(-c2nnc(SCC(=O)Nc3ccc(C(C)=O)cc3)nc2-c2ccc(OC)cc2)cc1,inactive: 3.3%
24,CC(Oc1ccc(F)cc1)C(=O)Nc1cc(-c2ccc(F)c(F)c2)no1 (stereo unspecified),inactive: 0%

row,Compound,"activity change, negative = inhibition"
1,Cc1ccc(S(=O)(=O)NCC2CCC(C(=O)N(C)Cc3ccccc3)CC2)cc1 (stereo unspecified),inactive: -0.957%
2,Cc1ccc(OCC(=O)N(Cc2ccco2)C2CCS(=O)(=O)C2)cc1 (stereo unspecified),inactive: 0%
3,COc1ccc(-c2cccc(NS(=O)(=O)c3ccc(C)s3)c2)nn1,inactive: 2.11%
4,COCCCNC(=O)c1oc2c(c1C)-c1nn(Cc3ccc(Cl)cc3)cc1CC2,inactive: 4.11%
5,Cn1cc(CCC(=O)NCc2ccc(Cl)cc2)c2ccccc21,inactive: -1.15%
6,Cc1cc(C)cc(NS(=O)(=O)c2ccc(-n3cccn3)cc2)c1,inactive: -4.95%
7,CCOc1cc(CNc2ccc(C(=O)O)cc2)ccc1OCc1ccccc1,inactive: -4.56%
8,CC1CCC(Nc2ncnc3onc(-c4ccc(F)cc4)c23)CC1 (stereo unspecified),inactive: 1.69%
9,O=C(O)c1c(-c2ccccc2)oc2ccc(OCc3ccc(Cl)c(Cl)c3)cc12,inactive: -10.1%
10,COc1cccc(-n2c(=O)c3c(C)c(C)sc3n(CC(=O)Nc3ccccc3OC)c2=O)c1,inactive: 4.97%
11,CCc1ccc(CNCc2c(C(=O)O)c(C)n(Cc3c(F)cccc3Cl)c2C)cc1,inactive: -2.85%
12,Cn1c(=O)n(C)c2cc(N3CCOCC3)c(NS(=O)(=O)c3ccc(C(C)(C)C)cc3)cc21,inactive: 0.301%
13,Cc1ccccc1CC1C(=O)Nc2ccc(Br)cc21 (stereo unspecified),inactive: -14.3%
14,CCOc1cccc(C(=O)N(Cc2ccc(N(C)C)cc2)CC2CCCO2)c1 (stereo unspecified),inactive: -4.1%
15,CCc1ccccc1NC(=O)N1CCC(CN2CCc3ccccc3C2)CC1,inactive: 2.46%
16,Cc1ccc(C(=O)CCC(=O)Nc2ccc(C)cc2C)cc1,inactive: -1.85%
17,CCOc1ccc(N(C(=O)c2ccccc2F)S(=O)(=O)c2ccc3c(c2)n(C)c(=O)n3C)cc1,inactive: 2.84%
18,CC1CCN(S(=O)(=O)c2ccc3c(ccc(=O)n3CC(=O)Nc3ccc(C(C)C)cc3)c2)CC1,inactive: -7.22%
19,CCOC(=O)c1c(-c2ccc(C)cc2)csc1NC(=O)c1cc(-c2ccc(Cl)cc2)on1,inactive: -8.87%
20,CS(=O)(=O)N(CC(=O)Nc1ccc(Br)cc1)c1ccccc1Br,inactive: -0.0914%
21,CNC(=O)Cn1nc(-c2ccc(Cl)cc2)c2ccccc2c1=O,inactive: -20.4%
22,CCCCC(CC)CNC(=O)CN(C)S(=O)(=O)c1ccc2c(c1)c(=O)n(C)c(=O)n2C (stereo unspecified),inactive: -9.47%
23,COc1ccc(NC(=O)CSC2=Nc3ccccc3C3=NC(CCC(=O)NCc4ccc(F)cc4)C(=O)N23)cc1Cl (stereo unspecified),inactive: -20.5%
24,COc1cccc(N2CCN(C(=O)C3CCN(S(=O)(=O)c4cccc5nonc45)CC3)CC2)c1,inactive: -7.99%

row,Compound,"activity change, negative = inhibition"
1,Cc1cc(NC(=O)CCNS(=O)(=O)c2ccc3c(c2)CCCC(=O)N3)ccc1Br,inactive: 6.77%
2,Cc1ccc(CN(C(=O)COc2ccc(Cl)cc2)c2ccccn2)o1,inactive: -2.17%
3,CCOc1ccccc1NC(=O)c1c(NCc2ccc(C)o2)sc2c1CCC(C)C2 (stereo unspecified),inactive: -9.75%
4,COc1ccc(CCNC(=O)Cn2nc(C)n3c(cc4cc(F)ccc43)c2=O)cc1OC,inactive: -16.8%
5,COc1ccc(S(=O)(=O)Nc2ccc3oc4c(c3c2)C(=O)CC(C)(C)C4)cc1,inactive: -15.9%
6,CCCCN(C)C(=O)Cn1c(C2CC(=O)N(c3ccc(C)cc3)C2)nc2ccccc21 (stereo unspecified),inactive: 2.42%
7,Cc1ccc(C)c(N2CCN(C(=O)c3cc4c(=O)n(Cc5ccco5)ccc4nc3C)CC2)c1,inactive: -15.7%
8,COc1cccc(C(=O)Nc2cccc(NC(=O)c3ccc(Cl)cc3Cl)c2)c1,inactive: -3.69%
9,CCOc1ccc(CNC(=O)CCCn2nc(C)c3sc4ccccc4c3c2=O)cc1,inactive: 4.95%
10,CCC(C)Nc1sc(S(=O)(=O)CC)nc1S(=O)(=O)c1ccc(C)cc1 (stereo unspecified),inactive: -8.79%
11,COC(=O)c1cc(S(=O)(=O)NCC2CCN(Cc3ccc(C)cc3)CC2)cn1C,inactive: 2.81%
12,CCCOc1ccc(-c2nn(-c3ccccc3)cc2C2NC(=O)NC(C)=C2C(=O)OC)cc1 (stereo unspecified),inactive: -19.8%
13,CCc1ccc(C(=O)c2cn(CC(=O)Nc3cc(OC)ccc3OC)c3ccc(C)cc3c2=O)cc1,inactive: -0.813%
14,Cc1cccc(NS(=O)(=O)c2ccc3c(c2)[C@H]2C=CC[C@H]2[C@@H](c2ccc(F)cc2)N3)c1,inactive: -29.7%
15,Cc1ccc(C)c(NC(=O)Cn2c(=O)nc(-c3ccccc3)c3ccccc32)c1,inactive: 6.05%
16,COc1ccc(C)cc1NC(=O)C1CCN(S(=O)(=O)c2ccc3c(c2)CCCN3C(C)=O)CC1,inactive: 1.89%
17,O=C(Nc1ccc(N2CCN(c3ccc(F)cc3)CC2)c(C(=O)O)c1)c1ccccc1F,inactive: 3.88%
18,CC1=C(C(=O)Nc2cccnc2)C(c2ccccc2)n2nc(SCc3ccccc3Cl)nc2N1 (stereo unspecified),inactive: -7.31%
19,Cc1ccc(CCNC(=O)Cn2ncc3c([nH]c4ccc(C)cc43)c2=O)cc1,inactive: -6.65%
20,CCOC(=O)c1ccc(NC(=O)CSc2nc3ccccc3c(=O)n2CCNC(C)=O)cc1,inactive: 0.438%
21,CCc1ccc(NC(=O)CN2C(=O)C(c3ccc(F)cc3)=NC2(C)C)cc1,inactive: 2.38%
22,CCCN(CCC)CCNC(=O)Cn1cc2c(n1)-c1c(oc(C(=O)N3CCCC3)c1C)CC2,inactive: -2.9%
23,COc1ccc(OC)c(NC(=O)CSc2cn(CC(=O)N3CCCCCC3)c3ccccc23)c1,inactive: -9.3%
24,O=C(CS(=O)(=O)c1cccc2nsnc12)Nc1ccc(F)cc1,inactive: -10.2%

row,Compound,"activity change, negative = inhibition"
1,COC(=O)c1cc(S(=O)(=O)NCC2CCN(Cc3ccc(F)cc3)CC2)c[nH]1,inactive: 6.96%
2,COCCNC(=O)CSc1nc2cc3c(cc2c(=O)n1CCCC(=O)NCc1ccc(OC)cc1)OCO3,inactive: -5.42%
3,CCSc1ncc(Cl)c(C(=O)N(Cc2ccc(N(C)C)cc2)Cc2ccco2)n1,inactive: -1.85%
4,COCCNC(=O)c1ccc2c(c1)N(Cc1cc(C)ccc1C)C(=O)c1ccccc1S2(=O)=O,inactive: 0.792%
5,Cc1ccc(NC(=O)CSc2nc3ccccc3nc2Cc2ccccc2)c(C)c1,inactive: 0%
6,Cc1cc(NCc2ccccc2Cl)n2cnnc2n1,inactive: -17.5%
7,CCOc1ccc(Cn2c(-c3ccc(OCC)c(OC)c3)nc3ccccc32)cc1OC,inactive: 6.35%
8,Cc1ccc(-c2nc(-c3cc4cccc(OCc5ccc(F)cc5)c4oc3=O)no2)cc1,inactive: -10.7%
9,Cc1ccc(CNC(=O)C2CCCCN2S(=O)(=O)c2ccc(F)cc2)cc1 (stereo unspecified),inactive: -6.2%
10,Cc1ccc(NC(=O)CSc2nc(-c3ccc(C(C)(C)C)cc3)nc3cc(=O)[nH]n23)cc1C,inactive: -6.7%
11,COc1ccc(CNC(=O)C2CCN(S(=O)(=O)c3ccc(F)cc3)CC2)cc1,inactive: -10.4%
12,CSc1ncc(C(=O)Nc2cccc(C)c2C)c(-c2ccccc2)n1,inactive: 0.0281%
13,COC(=O)c1ccc2c(c1)N(Cc1cc(C)ccc1C)C(=O)c1ccccc1S2,inactive: -1.73%
14,CCN1CCc2nc3sc(C(=O)c4ccccc4)c(N)c3cc2C1,inactive: -6.56%
15,CCN(c1ccccc1)S(=O)(=O)c1nnc(NC(=O)C(C)(C)C)s1,inactive: 0.236%
16,CC(CNC(=O)c1ccc(CSc2nc3ccncc3n2Cc2ccc(F)cc2)cc1)c1ccccc1 (stereo unspecified),inactive: -5.19%
17,CCOc1ccc2nc(N3CCCC(C(=O)NCCCOC)C3)sc2c1 (stereo unspecified),inactive: -0.64%
18,Cc1nc2nc(NCc3cccc(Cl)c3)[nH]n2c(=O)c1Cc1ccccc1,inactive: 3.72%
19,COC(=O)c1ccc(Cn2c(SCc3ccccc3F)nc3ccncc32)cc1,inactive: -5.75%
20,CCOc1ccc(CCNC(=O)Cn2c(=O)c3cccn3c3ccc(F)cc32)cc1OCC,inactive: 5.45%
21,COc1ccc(-c2cc3ccc(O)c(CN4CCCC(C)C4)c3oc2=O)cc1 (stereo unspecified),inactive: 0%
22,COc1ccc(OCCn2c(C(C)Oc3ccccc3)nc3ccccc32)cc1 (stereo unspecified),inactive: -15.6%
23,CC1C(=O)Nc2ccc(S(=O)(=O)NCc3ccc(N(C)C)cc3)cc2NC1=O (stereo unspecified),inactive: -10.5%
24,Cc1ccc(Cl)cc1-n1ncc2c(NCc3ccc(F)cc3)ncnc21,inactive: -7.97%
